# Source: publication PMC4336329 (PLoS ONE, 2015)
# The campaign covered roughly 310,000 compounds. About 14,000 (4.5%) showed an effect of 50% or more. Effects have a minus sign here. This is one part of the list.
# Target: human ether-à-go-go-related gene (hERG) potassium channel (human, UniProt Q12809)
# Experiment: primary screen, population patch clamp on CHO cells stably expressing hERG
# 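Also: peak tail current of the secondary pulse compared with the same well before compound.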
# Chain of human ether-à-go-go-related gene (hERG) potassium channel (Q12809 whole entry, looked up): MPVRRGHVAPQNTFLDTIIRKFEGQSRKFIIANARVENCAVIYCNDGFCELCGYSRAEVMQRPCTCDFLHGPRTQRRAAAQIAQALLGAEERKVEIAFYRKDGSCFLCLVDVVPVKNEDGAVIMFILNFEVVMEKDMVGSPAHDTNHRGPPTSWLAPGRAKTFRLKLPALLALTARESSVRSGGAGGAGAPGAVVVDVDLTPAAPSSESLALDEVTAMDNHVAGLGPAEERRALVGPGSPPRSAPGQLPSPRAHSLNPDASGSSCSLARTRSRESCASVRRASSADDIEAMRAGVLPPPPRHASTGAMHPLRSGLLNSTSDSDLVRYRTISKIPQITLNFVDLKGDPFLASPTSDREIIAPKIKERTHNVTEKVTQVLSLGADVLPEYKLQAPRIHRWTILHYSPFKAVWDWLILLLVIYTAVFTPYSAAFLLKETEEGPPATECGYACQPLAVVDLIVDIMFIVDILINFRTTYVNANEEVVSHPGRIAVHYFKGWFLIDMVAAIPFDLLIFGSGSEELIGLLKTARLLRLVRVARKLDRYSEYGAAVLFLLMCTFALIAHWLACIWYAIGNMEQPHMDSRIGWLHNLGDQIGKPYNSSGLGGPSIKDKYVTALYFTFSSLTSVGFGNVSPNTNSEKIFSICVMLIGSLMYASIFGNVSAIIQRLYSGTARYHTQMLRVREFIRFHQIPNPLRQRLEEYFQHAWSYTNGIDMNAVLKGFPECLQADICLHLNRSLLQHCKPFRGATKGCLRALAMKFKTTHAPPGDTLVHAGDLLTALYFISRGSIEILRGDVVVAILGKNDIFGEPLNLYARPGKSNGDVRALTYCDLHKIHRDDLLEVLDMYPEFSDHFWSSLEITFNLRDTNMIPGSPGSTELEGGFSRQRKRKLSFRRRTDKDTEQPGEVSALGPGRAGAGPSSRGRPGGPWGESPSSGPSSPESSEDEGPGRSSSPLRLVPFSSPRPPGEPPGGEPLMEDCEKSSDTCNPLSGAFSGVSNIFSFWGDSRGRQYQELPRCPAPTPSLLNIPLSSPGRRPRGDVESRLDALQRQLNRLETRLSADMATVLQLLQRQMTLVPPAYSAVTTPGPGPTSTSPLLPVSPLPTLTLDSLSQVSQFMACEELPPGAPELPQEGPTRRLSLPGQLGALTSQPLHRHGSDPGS
row,SMILES,"hERG current change (%, negative = inhibition) at 10uM [%]"
1,COc1ccc(OC)c(S(=O)(=O)N2CCC(C(=O)NCc3cccnc3)CC2)c1,10.5
2,N#CC1=C(N)N(c2ncn[nH]2)C2=C(C(=O)CCC2)C1c1ccc(F)cc1 (stereo not drawn),12.3
3,COc1ccccc1NC(=O)N1CCCC1C(=O)NCc1ccccc1F (stereo not drawn),19.4
4,Cc1ccc(S(=O)(=O)N/N=C\c2cc3c(cc2Br)OCO3)cc1,1.64
5,COc1cc2c(C(=O)N3CCN(c4ccccc4C)CC3)c(C)oc2cc1Br,7.54
6,O=S(=O)(Nc1nc2ccccc2nc1Nc1ccc2c(c1)OCO2)c1ccc(F)cc1,24.5
7,CCOC(=O)c1ccc(NC2=CC(=O)C(=O)c3ccccc32)cc1,7.2
8,CCCS(=O)(=O)N1CCC(C(=O)NC2CCCCC2C)CC1 (stereo not drawn),18.8
9,O=c1c2[nH]c3cccc(Cl)c3c2ncn1Cc1ccco1,27.5
10,CCOc1ccc(NC(=O)CCSc2ccc(C)cc2)cc1,8.63
11,O=C(COc1ccc(N2CC(C(=O)O)CC2=O)cc1)Nc1cccc(C(F)(F)F)c1 (stereo not drawn),21.2
12,NC(=O)CC[C@H](NC(=O)OCc1ccccc1)C(=O)OCc1ccc(Cl)cc1,3.73
13,O=C(N/N=C1\CCc2ccccc21)c1ccccc1O,-3.21
14,CC(=O)Nc1ccc(/C(C)=N/NC(=O)c2ccc(COc3ccccc3Cl)o2)cc1,3.86
15,COC(=O)C1=[N+]([O-])OC(C(=O)OC)C1c1c[nH]c2ccccc12 (stereo not drawn),-6.22
16,CCC(C)NC(=O)c1c(C)cc(=O)oc1C (stereo not drawn),8.31
17,COC(=O)c1ccc([C@H]2C=C(C(=O)O)O[C@@H](OCc3ccc(CO)cc3)C2)cc1,13.6
18,CC(C)Cc1[nH]c(=O)c(C#N)c2c1CCC2,8.97
19,O=C(O)[C@H](Cc1c[nH]c2ccccc12)Nc1ncccc1[N+](=O)[O-],0.648

row,SMILES,"hERG current change (%, negative = inhibition) at 10uM [%]"
1,CCC(C)(C)C1CCC(=NNc2nc3ccccc3[nH]2)CC1 (stereo not drawn),2.49
2,CCCOc1ccc(S(=O)(=O)N2CCOCC2)cc1[N+](=O)[O-],-57.8
3,Cc1nccn1C[C@@H]1CCc2c(c3ccccc3n2C)C1=O,-31.5
4,Cc1cc(-n2nc(C)cc2C)n2nc(C)c(-c3ccccc3)c2n1,13.6
5,CC(C)CC(=O)NC(c1ccccc1Cl)c1c(O)ccc2ccccc12 (stereo not drawn),-15.5
6,CCOc1ccc(C(=O)c2nc3c(n2O)CCCCC3)cc1,13
7,COc1ccccc1N/C(N)=N/c1nc(CSc2ccc(C)cc2)cc(=O)[nH]1,15.8
8,O=C(Nc1cccc(-c2ccc(N3CCCCC3)nn2)c1)C(F)(F)F,-8.5
9,Cc1ccc(N(C(C)C(=O)N2CCN(Cc3ccccc3)CC2)S(C)(=O)=O)cc1 (stereo not drawn),2.78
10,CCOc1ccc(NC(=O)CCN2CCN(S(=O)(=O)c3ccc(F)cc3)CC2)cc1,-16.5
11,COC(=O)C1=C(Nc2cc(Cl)cc(Cl)c2)CSC1,11.9
12,CCCC(=O)N=c1sc2cccc(F)c2n1C,-13.8
13,Cc1ccc(SCCNC(=O)C(C)C)cc1,5.58
14,CC(Sc1nnc(N)s1)C(=O)NC1CCCCC1C (stereo not drawn),-5.59
15,O=C(O)CCS(=O)(=O)c1cccc2cccnc12,11.7
16,CCNC(=O)c1ccc(-n2nc(C)cc2-c2ccccc2)cc1,2.65
17,CCOc1cccc(C(=O)Nc2cccc(-c3nnc(-c4ccc(C)cc4)o3)c2)c1,19.5
18,CCOCCc1nnc(NC(=O)CN2C(=O)c3ccccc3C2=O)s1,-14.5
19,O=C(COC(=O)CCc1ccc(S(=O)(=O)N2CCOCC2)cc1)NC1CCCC1,-4.09

row,SMILES,"hERG current change (%, negative = inhibition) at 10uM [%]"
1,Cc1nn(C)cc1C(C)NC(=O)c1cc(COc2ccc(F)c(F)c2)on1 (stereo not drawn),-6.16
2,CC(=O)c1cn(Cc2ccccc2C#N)c2ccccc12,25.3
3,Cc1ccc(/C=N/n2nnnc2N)o1,-7.92
4,Cc1ccccc1NC(=O)N1c2ccccc2CC1C (stereo not drawn),22.1
5,Cc1ccc(C2=CC(C)(c3ccc(C)cc3)Nc3nc(C(F)(F)F)nn32)cc1 (stereo not drawn),11.5
6,COc1ccc(/C=N/NC(=O)CC(=O)NCc2cccnc2)c(OC)c1,4.71
7,O=C(Nc1ccccc1C(=O)N1CCCC1)C1COc2ccccc2O1 (stereo not drawn),9.02
8,CCn1c(SCC(=O)Nc2cc(NC(C)=O)ccc2OC)nnc1-c1ccccn1,4.03
9,O=C(CN1CCN(c2ccc([N+](=O)[O-])cc2)CC1)c1ccccc1,-75
10,COc1ccc(C(=O)OCC(=O)NC(C)CCc2ccccc2)c(OC)c1 (stereo not drawn),-15.1
11,COc1ccc(C(C)=O)cc1COC(=O)CCCN1C(=O)c2ccccc2C1=O,-11.3
12,COc1ccccc1CCNC(=O)c1ccc2nc[nH]c2c1,3.97
13,COc1ccc(CCNC(=O)CSc2nc3[nH]ncc3c(=O)n2-c2ccccc2OC)cc1OC,58.3
14,O=C(COC(=O)Cc1c[nH]c2ccccc12)NC1CCCCC1,16.7
15,C/C(=N\NC(=O)c1nnn(-c2nonc2N)c1CN1CCOCC1)c1ccc(CC(C)C)cc1,6.15
16,CC/C(=N\NC(=O)c1ccc(CN(C)S(=O)(=O)c2ccc(C)cc2)cc1)c1ccc(OC(F)F)cc1,-26.5
17,CCOc1cc(C(=O)NCCC(=O)N2CCC3(CC2)NCCc2[nH]cnc23)cc(OCC)c1OCC,27
18,Cc1nn(-c2ccccc2)c(C)c1C(=O)OCC(=O)NC(=O)NC1CCCC1,-15.8
19,CCN(CC)c1ccc(C(=O)OCC(=O)Nc2sccc2C#N)cc1,12.2
